Out of some 310,000 compounds screened, about 2,200 (0.71%) showed an effect of 50% or more. The effect is printed as a negative number. This is one part of the list.
What follows are molecules tested against human ether-à-go-go-related gene (hERG) potassium channel (human, UniProt Q12809) (assay: primary screen, population patch clamp on CHO cells stably expressing hERG).
human ether-à-go-go-related gene (hERG) potassium channel, sequence (Q12809 whole entry, looked up): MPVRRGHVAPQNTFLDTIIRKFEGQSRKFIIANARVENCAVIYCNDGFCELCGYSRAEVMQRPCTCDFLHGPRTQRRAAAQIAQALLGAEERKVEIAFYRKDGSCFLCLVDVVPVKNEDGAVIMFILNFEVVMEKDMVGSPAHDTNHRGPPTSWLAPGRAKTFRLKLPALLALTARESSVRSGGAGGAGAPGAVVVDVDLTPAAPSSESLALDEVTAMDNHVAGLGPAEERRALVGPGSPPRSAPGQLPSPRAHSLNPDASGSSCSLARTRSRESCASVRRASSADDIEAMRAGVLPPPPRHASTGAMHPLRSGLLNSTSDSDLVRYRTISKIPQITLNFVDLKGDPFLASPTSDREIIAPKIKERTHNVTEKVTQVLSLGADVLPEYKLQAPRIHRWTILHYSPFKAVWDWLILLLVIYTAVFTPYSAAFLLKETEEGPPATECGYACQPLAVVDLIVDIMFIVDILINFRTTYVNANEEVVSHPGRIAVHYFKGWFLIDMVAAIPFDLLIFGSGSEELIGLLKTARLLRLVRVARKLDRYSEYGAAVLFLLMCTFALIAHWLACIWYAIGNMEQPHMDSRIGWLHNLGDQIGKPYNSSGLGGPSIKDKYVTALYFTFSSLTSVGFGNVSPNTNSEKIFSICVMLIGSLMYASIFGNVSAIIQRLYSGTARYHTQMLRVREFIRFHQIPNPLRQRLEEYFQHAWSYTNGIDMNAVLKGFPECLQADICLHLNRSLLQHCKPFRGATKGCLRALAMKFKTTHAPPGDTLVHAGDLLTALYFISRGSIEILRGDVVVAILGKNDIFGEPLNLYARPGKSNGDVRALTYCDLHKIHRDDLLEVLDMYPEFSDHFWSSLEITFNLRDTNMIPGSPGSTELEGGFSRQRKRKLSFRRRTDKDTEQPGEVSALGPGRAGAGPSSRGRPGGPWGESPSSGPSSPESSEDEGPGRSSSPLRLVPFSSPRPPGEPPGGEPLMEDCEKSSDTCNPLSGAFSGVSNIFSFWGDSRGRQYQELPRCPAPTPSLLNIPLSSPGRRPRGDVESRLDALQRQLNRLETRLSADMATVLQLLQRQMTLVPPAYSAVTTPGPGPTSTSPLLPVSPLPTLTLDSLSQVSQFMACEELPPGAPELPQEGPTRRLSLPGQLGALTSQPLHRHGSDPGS

Q: `Cc1[nH]n(-c2ccccc2)c(=O)c1C(c1cccc([N+](=O)[O-])c1O)c1c(C)[nH]n(-c2ccccc2)c1=O` was tested. Which “hERG current change (%, negative = inhibition) at 1uM” value did it give?
A: -2.66%

Q: Which “hERG current change (%, negative = inhibition) at 1uM” value does the source give for `Cc1cc(O)c(NC(=O)c2ccc(Br)o2)cc1C` here?
A: 1.84%

Q: How did the “hERG current change (%, negative = inhibition) at 1uM” value turn out when `COc1ccc(C(=O)NNC(=O)CSc2nnc(-c3cccnc3)n2C)cc1` was run?
A: 13.5%

Q: `O=C(c1ccc(Cl)cc1)N1C2C=CC(C2)C1(C(F)(F)F)C(F)(F)F` (stereo not drawn) was tested. Which “hERG current change (%, negative = inhibition) at 1uM” value did it give?
A: 18.1%

Q: How did the “hERG current change (%, negative = inhibition) at 1uM” value turn out when `O=C(O)CSc1cccnc1Sc1ccc(Cl)cc1` was run?
A: 3.81%

Q: How did the “hERG current change (%, negative = inhibition) at 1uM” value turn out when `Cn1c(S(=O)(=O)Cc2ccc(Cl)cc2)nc2ccccc21` was run?
A: 3.17%

Q: `Cc1cc(NC(=O)c2ccc(NC(=O)C(C)C)cc2)no1` was tested. Which “hERG current change (%, negative = inhibition) at 1uM” value did it give?
A: 2.49%

Q: For `COC(=O)C1=C(c2cccc(C#N)c2)C[C@@H]2CC[C@H]1N2C(=O)NC1Cc2ccccc2C1`, which “hERG current change (%, negative = inhibition) at 1uM” value is on record?
A: 15%

Q: How did the “hERG current change (%, negative = inhibition) at 1uM” value turn out when `CCOc1ccccc1NC(=O)CN(C)S(=O)(=O)c1ccc(OC)c(C)c1` was run?
A: -1.26%

Q: `N#Cc1ccccc1S(=O)(=O)N1CCN(c2ccc(S(=O)(=O)N3CCOCC3)cn2)CC1` was tested. Which “hERG current change (%, negative = inhibition) at 1uM” value did it give?
A: -1.92%

Q: With `COc1ccc(C(=O)NCCC2=CCCCC2)cc1OC` as the molecule, how does the “hERG current change (%, negative = inhibition) at 1uM” value read?
A: 8.68%

Q: How did the “hERG current change (%, negative = inhibition) at 1uM” value turn out when `COc1ccccc1CNS(=O)(=O)c1cc2c3c(c1)CCC(=O)N3CCC2` was run?
A: 7.42%

Q: For `Cc1cccc2sc(N(CCCN(C)C)C(=O)CCc3ccccc3)nc12.Cl`, which “hERG current change (%, negative = inhibition) at 1uM” value is on record?
A: -5.32%

Q: Which “hERG current change (%, negative = inhibition) at 1uM” value does the source give for `CC1(C)CSC(=NCCc2ccccc2)N1` here?
A: 22.1%

Q: How did the “hERG current change (%, negative = inhibition) at 1uM” value turn out when `Cn1cccc1C(=O)NNC(=O)COc1ccc(C#N)cc1` was run?
A: 2.22%

Q: With `O=C(Nc1n[nH]c(C2CCCCC2)n1)C1CCCCC1` as the molecule, how does the “hERG current change (%, negative = inhibition) at 1uM” value read?
A: 9.42%

Q: How did the “hERG current change (%, negative = inhibition) at 1uM” value turn out when `Cc1ccc(C)c(OCc2cc(C(=O)N3CCOCC3)no2)c1` was run?
A: 9.42%

Q: `CC(C)(C)NC(=O)C1CCN(C(=O)c2ccco2)CC1` was tested. Which “hERG current change (%, negative = inhibition) at 1uM” value did it give?
A: 11.6%

Q: With `Cc1ccc(C(=O)NCCc2nnc3ccc(NCCCN4CCOCC4)nn23)cc1` as the molecule, how does the “hERG current change (%, negative = inhibition) at 1uM” value read?
A: 11.1%

Q: For `CC(=O)Nc1ccc(N(C(=O)c2ccco2)C(C(=O)NC2CCCC2)c2cccs2)cc1` (stereo not drawn), which “hERG current change (%, negative = inhibition) at 1uM” value is on record?
A: 17%

Q: How did the “hERG current change (%, negative = inhibition) at 1uM” value turn out when `Cc1cccc(C)c1Nc1nnc(SCc2nc3ccccc3s2)s1` was run?
A: 1.36%

Q: `COc1ccc(CNC(=S)N/N=C/c2ccc(O)c(OC)c2)cc1` was tested. Which “hERG current change (%, negative = inhibition) at 1uM” value did it give?
A: 8.03%

Q: `Cc1cc(C)n2nc(SCc3ccc(F)cc3Cl)nc2n1` was tested. Which “hERG current change (%, negative = inhibition) at 1uM” value did it give?
A: 12%

Q: `Cn1c(Cc2ccc3c(c2)OCO3)nnc1SCC(=O)NC(C)(C)C` was tested. Which “hERG current change (%, negative = inhibition) at 1uM” value did it give?
A: 26.5%

Q: With `O=C(CC1C(=O)NCCN1Cc1ccc(-c2ccccc2)cc1)NCCc1ccccn1` (stereo not drawn) as the molecule, how does the “hERG current change (%, negative = inhibition) at 1uM” value read?
A: 16.5%

Q: How did the “hERG current change (%, negative = inhibition) at 1uM” value turn out when `Cc1ccc(-c2csc(NC(=O)c3cccc(N4C(=O)CCC4=O)c3)n2)o1` was run?
A: 8.76%

Q: For `CCc1cccc2c(C(=O)COC(=O)/C=C/c3ccc(O)c(OC)c3)c[nH]c12`, which “hERG current change (%, negative = inhibition) at 1uM” value is on record?
A: 5.93%

Q: How did the “hERG current change (%, negative = inhibition) at 1uM” value turn out when `O=C(CNC(=O)c1ccc(Cl)cc1Cl)OCCCn1c(=O)[nH]c2ccccc21` was run?
A: 12.5%

Q: For `COc1ccc(C(Nc2ccc(S(=O)(=O)N3CCOCC3)cc2)C(=O)NCCC(C)C)cc1OC` (stereo not drawn), which “hERG current change (%, negative = inhibition) at 1uM” value is on record?
A: 8.44%

Q: How did the “hERG current change (%, negative = inhibition) at 1uM” value turn out when `CCOc1c(N2CC(C)OC(C)C2)c(=O)c1=O` (stereo not drawn) was run?
A: 10.4%

Q: How did the “hERG current change (%, negative = inhibition) at 1uM” value turn out when `CC1CC(C)CN(C(=O)C2CCCN(c3ncnc4c3nc3n4CCCCC3)C2)C1` (stereo not drawn) was run?
A: -1.13%

Q: Which “hERG current change (%, negative = inhibition) at 1uM” value does the source give for `Cc1ccc(S(=O)(=O)N2CCN(C(=O)CN3CCCCC3)C2)cc1` here?
A: 5.17%

Q: Which “hERG current change (%, negative = inhibition) at 1uM” value does the source give for `O=C(O)Cn1nnc(-c2cccs2)n1` here?
A: 6.29%

Q: `O=C(CCc1ccc(S(=O)(=O)N2CCOCC2)cc1)Oc1ccccc1` was tested. Which “hERG current change (%, negative = inhibition) at 1uM” value did it give?
A: 3.71%

Q: Which “hERG current change (%, negative = inhibition) at 1uM” value does the source give for `COc1ccc(C(=O)N2CCN(CCNC(=O)C(=O)Nc3ccc(F)cc3)CC2)cc1` here?
A: -44.9%

Q: Which “hERG current change (%, negative = inhibition) at 1uM” value does the source give for `NC(=O)c1ccsc1NC(=O)C1CCCCC1` here?
A: 4.81%

Q: Which “hERG current change (%, negative = inhibition) at 1uM” value does the source give for `c1ccc(C[C@H]2CN=C(Nc3ccccc3)N2CCC2CCCC2)cc1` here?
A: -17.5%

Q: With `C/C(=N\N=C1\NC(=O)C(Cc2ccccc2)S1)c1ccccc1` (stereo not drawn) as the molecule, how does the “hERG current change (%, negative = inhibition) at 1uM” value read?
A: 15.6%

Q: For `CCOc1ccc(NC(=O)CSc2nnc(N)s2)c([N+](=O)[O-])c1`, which “hERG current change (%, negative = inhibition) at 1uM” value is on record?
A: -4.47%

Q: Which “hERG current change (%, negative = inhibition) at 1uM” value does the source give for `Fc1cc2[nH]c(=S)[nH]c2cc1Cl` here?
A: 11.5%

Q: How did the “hERG current change (%, negative = inhibition) at 1uM” value turn out when `C[C@@H]1CN(Cc2cn(C)nc2-c2cccc(Cl)c2)C[C@H](C)O1` was run?
A: 10.2%

Q: `CN(C)C(=O)CSc1ncccc1-c1nc2ccccc2[nH]1` was tested. Which “hERG current change (%, negative = inhibition) at 1uM” value did it give?
A: 11.8%

Q: For `O=C(OCCN=C1NS(=O)(=O)c2ccccc21)c1ccccc1`, which “hERG current change (%, negative = inhibition) at 1uM” value is on record?
A: -12.2%

Q: With `CC(=O)Nc1cccc(NC(=O)COc2ccc3c(c2)OCO3)c1` as the molecule, how does the “hERG current change (%, negative = inhibition) at 1uM” value read?
A: 10.8%

Q: How did the “hERG current change (%, negative = inhibition) at 1uM” value turn out when `COc1ccc(C2c3c(-c4ccccc4)n[nH]c3C(=O)N2c2ccc(C(=O)O)cc2)cc1` (stereo not drawn) was run?
A: 7.07%

Q: How did the “hERG current change (%, negative = inhibition) at 1uM” value turn out when `C=CC(C)N1C(=O)S/C(=C\c2ccc(N3CCOCC3)cc2C)C1=O` (stereo not drawn) was run?
A: 7.33%

Q: For `Cc1cccnc1Nc1nc(-c2ccccc2)cs1`, which “hERG current change (%, negative = inhibition) at 1uM” value is on record?
A: 11.1%

Q: Which “hERG current change (%, negative = inhibition) at 1uM” value does the source give for `O=C(CSc1nc2scc(-c3ccccc3)c2c(=O)[nH]1)Nc1ccccc1` here?
A: 15.9%

Q: With `CC1=Nc2cc(C(=O)NCCCN3CCN(C)CC3)ccc2Sc2ccc(C)cc21` as the molecule, how does the “hERG current change (%, negative = inhibition) at 1uM” value read?
A: 6.06%

Q: How did the “hERG current change (%, negative = inhibition) at 1uM” value turn out when `CCOc1ccc(CCNS(=O)(=O)c2ccc(-c3ccc(=O)[nH]n3)o2)cc1OCC` was run?
A: -2.54%

Q: Which “hERG current change (%, negative = inhibition) at 1uM” value does the source give for `COc1cc(OC)cc(C(=O)Nc2ncc3c(n2)CC(C)(C)CC3=O)c1` here?
A: 3.29%

Q: For `Cc1ccc(NCCCCO)cc1C`, which “hERG current change (%, negative = inhibition) at 1uM” value is on record?
A: 12.9%

Q: For `CC(=O)c1cc(CC(=O)N2CCc3c([nH]c4ccccc34)C2c2ccccn2)cs1` (stereo not drawn), which “hERG current change (%, negative = inhibition) at 1uM” value is on record?
A: 11%

Q: How did the “hERG current change (%, negative = inhibition) at 1uM” value turn out when `CCNc1ccc(S(=O)(=O)N2CCCCC2)cn1` was run?
A: 12.7%

Q: For `CC(Oc1ccc2c3c(c(=O)oc2c1)CCCC3)C(=O)NCC(O)c1ccccc1` (stereo not drawn), which “hERG current change (%, negative = inhibition) at 1uM” value is on record?
A: 15%

Q: Which “hERG current change (%, negative = inhibition) at 1uM” value does the source give for `O=C(C1=C[C@H](c2ccc3c(c2)OCO3)C[C@H](OCCCCO)O1)N1CCOCC1` here?
A: 9.42%

Q: For `NS(=O)(=O)c1ccc(NC(=O)c2ccc(Cl)c(S(=O)(=O)NCc3ccco3)c2)cc1`, which “hERG current change (%, negative = inhibition) at 1uM” value is on record?
A: 13.3%
